In all, about 410,000 compounds went through this assay and about 6,400 (1.6%) were called active. The shares of active, inactive and inconclusive entries below differ from those in the screen. The call rests on the fitted dose curve; in most records, active means well fitted inhibition curve with a large enough effect; inconclusive means small, poorly fitted or top-dose-only effect; inactive means no such curve, though single readings can be large or run the other way. Where the call is inconclusive, the potency comes from a doubtful curve fit.
The compounds below were run against Glucagon-like peptide 1 receptor (Homo sapiens) (UniProt P43220) (assay: qHTS of GLP-1 Receptor Inverse Agonists (Inhibition Mode)). Details: HEK293 GLP-1R CRE-luciferase, luminescence, 24 h; Potency: GLP-1R form is constitutively active unless noted; activity change, negative = inhibition: at 38.3 µM (top of the series) unless noted.
How it was run: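 Luminescence readout: a drop in cAMP-driven luciferase signal flags inverse agonism at a constitutively active GLP-1R stably expressed in HEK293. Compound exposure lasted 24 hr at 37 deg C, 5% CO2.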
Further: nearly all actives have a fitted effect of over 55% in size.
On the % scale 0 is the no-effect control and ±100 the full control effect; potency means the concentration at half of the fitted maximal effect; tags describe the fitted curve by direction and shape.

Sequence of UniProt P43220 (P43220 whole entry, looked up): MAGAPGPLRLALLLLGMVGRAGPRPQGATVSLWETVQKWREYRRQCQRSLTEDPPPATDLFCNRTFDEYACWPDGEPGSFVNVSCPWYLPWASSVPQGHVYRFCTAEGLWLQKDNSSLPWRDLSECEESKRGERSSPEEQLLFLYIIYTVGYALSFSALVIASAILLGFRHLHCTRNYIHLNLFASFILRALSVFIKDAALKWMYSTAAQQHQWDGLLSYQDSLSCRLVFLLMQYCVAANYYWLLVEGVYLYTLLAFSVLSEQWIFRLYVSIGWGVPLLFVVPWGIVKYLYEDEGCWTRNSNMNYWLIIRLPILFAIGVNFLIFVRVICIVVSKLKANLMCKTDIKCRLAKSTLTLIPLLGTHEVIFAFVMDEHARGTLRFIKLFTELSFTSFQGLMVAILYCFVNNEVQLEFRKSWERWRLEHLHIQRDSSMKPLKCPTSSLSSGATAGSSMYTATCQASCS

Compound	Potency	activity change, negative = inhibition
CCN(CC)CC(O)c1ccc(C2CCCC2)cc1 (configuration not stated)	active: 7.08 µM [setting not given]	–
FC(F)(F)c1nc(N2CCN(c3ccccc3)CC2)nc2c1CCCCC2	inconclusive: 3.55 µM [inhibitor, full curve, poor fit]	–
O=C(CSc1ccc(Cl)cc1)NC1=NN(c2ccccc2)C(=O)C1	inconclusive: 12.6 µM [inhibitor, single point]	–
CCN(CC)C(=O)c1ccc2c(c1)C1C(Cl)C(Sc3ccccc3[N+](=O)[O-])CC1C(C(=O)O)N2 (configuration not stated)	inactive	–
COc1ccccc1N1CCN(Cc2ccccc2Cl)CC1	inactive	–
O=[N+]([O-])c1ccc(O)c([N+](=O)[O-])c1	inactive	–
Cc1oc(-c2ccc(Cl)cc2)nc1CN1C(=O)CN=C(c2ccccc2)c2ccccc21	inconclusive: 28.2 µM [inhibitor, single point]	–
Nc1c(C(=O)NCc2ccco2)c2nc3ccccc3nc2n1Cc1ccccc1	inconclusive: 28.2 µM [inhibitor, single point]	–
Oc1ccc(C2NCc3ccccc3-n3cccc32)cc1Cl (configuration not stated)	inconclusive: 10 µM [inhibitor, partial curve, poor fit]	–
O=C1CC(N2CCC(n3c(=O)[nH]c4ccccc43)CC2)C(=O)N1Cc1ccccc1 (configuration not stated)	inconclusive: 5.62 µM [inhibitor, partial curve]	–
O=C(O)C1C2CCC(O2)C1C(=O)Nc1cccc(Br)c1 (configuration not stated)	inactive	–
COC(=O)C1=C(c2cccc(OCc3ccccc3)c2)C[C@@H]2CC[C@H]1N2C(=O)NCc1ccc(OC)cc1	inconclusive: 10 µM [inhibitor, partial curve, poor fit]	–
COc1ccccc1C1CC2CCC(C1OC(C)=O)N2Cc1ccccc1 (configuration not stated)	inconclusive: 28.2 µM [inhibitor, single point]	–
COC(=O)c1c(C)[nH]c(C(=O)C(Cc2ccccc2)N(C)C)c1C (configuration not stated)	inconclusive: 10 µM [inhibitor, partial curve]	–
Fc1ccc(C[n+]2c(-c3ccccc3)cc(-c3ccccc3)cc2-c2ccccc2)cc1	inconclusive: 3.55 µM [inhibitor, full curve, poor fit]	–
CCCOP(=O)(OCCC)C(Nc1ccc(C(C)C)cc1)c1ccc([N+](=O)[O-])cc1 (configuration not stated)	inconclusive: 2.51 µM [inhibitor, partial curve, poor fit]	–
Cc1c(C(c2ccc(F)cc2)c2c(O)c3ccccc3oc2=O)c(=O)n(-c2ccccc2)n1C (configuration not stated)	inconclusive: 22.4 µM [inhibitor, single point]	–
CC1C(=O)C(C)C(c2ccc(Cl)cc2)NC1c1ccc(Cl)cc1 (configuration not stated)	inconclusive: 7.94 µM [inhibitor, partial curve]	–
CC(C)c1cccc(C(C)C)c1OCCn1ccnc1	inconclusive: 10 µM [inhibitor, partial curve, poor fit]	–
CN(Cc1cccc(-c2ccncc2)c1)C(=O)Oc1ccc([N+](=O)[O-])cc1	inconclusive: 25.1 µM [inhibitor, single point]	–
COc1ccc(C(=O)C2CCCN(C3CSCCSC3)C2)c(C)c1 (configuration not stated)	inconclusive: 17.8 µM [inhibitor, partial curve, poor fit]	–

Compound	Potency	activity change, negative = inhibition
CC1CCCC(C)N1/N=C/c1c[nH]c2ccc(Br)cc12 (configuration not stated)	inconclusive: 7.94 µM [inhibitor, partial curve, poor fit]	–
c1ccc(CN2CCN(Cc3ccc4ccccc4c3)CC2)cc1	inconclusive: 31.6 µM [inhibitor, partial curve, poor fit]	–
O=c1[nH]c(=S)n(-c2ccc(Cl)cc2)c(O)c1C=Nc1ccc(N2CCOCC2)cc1	inactive	–
O=C(/C=C/c1ccc2c(c1)OCO2)c1c(O)n(CCc2ccccc2)c(=O)[nH]c1=O	inconclusive: 11.2 µM [inhibitor, partial curve]	–
N=c1c[n+](CC23CC4CC(CC(C4)C2)C3)[n-]o1	inconclusive: 8.91 µM [inhibitor, partial curve, poor fit]	–
Cc1ccsc1C(=O)C1CCCN(Cc2cccn2-c2ccccn2)C1 (configuration not stated)	inconclusive: 10 µM [inhibitor, single point]	–
CN(C)CCOC(=O)c1cn(Cc2ccccc2)c2ccccc12	inconclusive: 28.2 µM [inhibitor, single point]	–
Fc1ccc(CNCCc2c[nH]c3ccccc23)cc1	inconclusive: 11.2 µM [inhibitor, partial curve, poor fit]	–
Cc1cccc(C(=O)Nc2ccc(Cl)cc2C(=O)c2ccccc2)c1	inconclusive: 28.2 µM [inhibitor, single point]	–
O=c1c2ccccc2[nH]c(=S)n1-c1cccc(C(F)(F)F)c1	inconclusive: 3.98 µM [inhibitor, partial curve, poor fit]	–
COc1ccccc1Sc1ccccc1CC(C)N (configuration not stated)	inconclusive: 12.6 µM [inhibitor, single point]	–
O=P(N1CCCCC1)(N1CCCCC1)C(Cl)(Cl)Cl	inactive	–
Cc1ccc(-c2nnc(Nc3ccc(OC(F)(F)Cl)cc3)c3ccccc23)cc1S(=O)(=O)NC(C)(C)CO	inconclusive: 10 µM [inhibitor, partial curve, poor fit]	–
C#CC(C)(CC)NC(=O)Cn1nnc(-c2ccc(OCc3ccccc3C)cc2)n1 (configuration not stated)	inconclusive: 11.2 µM [inhibitor, partial curve, poor fit]	–
O=c1oc2ccccc2c(O)c1C(c1ccc([N+](=O)[O-])cc1)c1c(O)c2ccccc2oc1=O	inconclusive: 11.2 µM [inhibitor, partial curve, poor fit]	–
COc1ccc(-c2nc3ccc(C(=O)N4CCC5(CC4)OCCO5)cc3nc2-c2ccc(OC)cc2)cc1	inconclusive: 7.94 µM [inhibitor, partial curve, poor fit]	–
Cc1c(N)c(C)c([N+](=O)[O-])c(C)c1[N+](=O)[O-]	inconclusive: 10 µM [inhibitor, partial curve]	–
CCOC(=O)c1c(-n2c(C)cc(C=C3C(=O)NC(=O)NC3=O)c2C)sc2c1CCCC2	inactive	–
COc1ccc(C(CNC(=O)c2cc(S(=O)(=O)N3CCCCC3)ccc2C)N2CCCC2)cc1 (configuration not stated)	inconclusive: 10 µM [inhibitor, partial curve]	–
COc1ccc(-n2c(CNCCc3ccc(C)cc3)nc3ccccc3c2=O)cc1	inconclusive: 2.24 µM [inhibitor, partial curve, poor fit]	–
C/C=C1\CN2[C@H]3C[C@@]45c6ccccc6N(C)[C@H]4[C@@H]2CC1C3[C@H]5O (some centres not stated)	inactive	–

Compound	Potency	activity change, negative = inhibition
CCCSc1nc2ccccc2c(=O)n1-c1ccccc1OC	inconclusive: 11.2 µM [inhibitor, partial curve, poor fit]	–
COc1ccccc1CN1CCCCC1c1cccnc1 (configuration not stated)	inactive	–
CC(C)(C)N1CC(C(=O)c2ccccc2)C1c1ccccc1 (configuration not stated)	inconclusive: 12.6 µM [inhibitor, single point]	–
CCCCc1nc(N2CCNCC2)c(C#N)c2c1CSC(C)(C)C2	inconclusive: 31.6 µM [inhibitor, single point]	–
Cc1cc(N(CCCl)CCCl)ccc1C=NNC(=O)c1cccnc1	inconclusive: 0.282 µM [inhibitor, full curve, poor fit]	–
COc1ccc(C(=O)C2CN(C)CC2c2ccc(Cl)cc2)cc1 (configuration not stated)	inconclusive: 28.2 µM [inhibitor, single point]	–
O=C(c1ccc(N2CCCCCC2)c([N+](=O)[O-])c1)N1CCC2(CC1)OCCO2	–	inconclusive: -38.6% [inhibitor] [at 7.66 µM, GLP-1R form is constitutively active]
CC(C)CNC(=O)c1c(N)n(Cc2ccco2)c2nc3ccccc3nc12	inconclusive: 28.2 µM [inhibitor, single point]	–
COc1c(C=C2C(=O)NC(=O)NC2=O)c(CCN(C)C(=O)c2ccccc2)cc2c1OCO2	inactive	–
CC1CN(c2ccccn2)C(C)CN1C(=O)C(O)(c1ccccc1)c1ccccc1 (configuration not stated)	inconclusive: 12.6 µM [inhibitor, partial curve, poor fit]	–
CN(Cc1ccccc1)C(=O)c1cccc(NC(=O)Cc2ccc([N+](=O)[O-])cc2)c1	inconclusive: 11.2 µM [inhibitor, single point]	–
COc1ccc(-n2nnnc2C(c2ccccc2OC(F)(F)F)N2CCC(n3c(=O)[nH]c4ccccc43)CC2)cc1 (configuration not stated)	inconclusive: 28.2 µM [inhibitor, single point]	–
NC(Cc1ccc(F)cc1)c1csc(Nc2ncccn2)n1 (configuration not stated)	inconclusive: 28.2 µM [inhibitor, single point]	–
CCOc1ccc(NC(=O)CCNC(=O)N2C[C@H]3C[C@@H](C2)c2cccc(=O)n2C3)cc1	inconclusive: 28.2 µM [inhibitor, single point]	–
COc1ccccc1CCNCc1cc2c(cc1[N+](=O)[O-])OCO2	inactive	–
O=[N+]([O-])c1cccc(CN2CCN(Cc3ccc(Br)cc3)CC2)c1	inconclusive: 7.94 µM [inhibitor, partial curve]	–
COc1cccc2c1cc([N+](=O)[O-])c1c(C(=O)O)cc3c(c12)OCO3	inconclusive: 28.2 µM [inhibitor, single point]	–
Nc1ccc(CCN2CCN(c3cccc(C(F)(F)F)c3)CC2)cc1	inconclusive: 1 µM [inhibitor, full curve, poor fit]	–
COc1ccc(N2C(=O)/C(=C/c3ccc(OC)c(OC)c3)C(=O)NC2=S)cc1	inactive	–
O=C(NCc1ccccc1)c1cccn(Cc2cccc(Cl)c2)c1=O	inconclusive: 31.6 µM [inhibitor, partial curve, poor fit]	–
